Measured values: paper PMC11564117, “Control of mitophagy initiation and progression by the TBK1 adaptors NAP1 and SINTBAD” (Nature Structural & Molecular Biology, 2024)
Blank lines part the entries; values can stand above or below the binder they belong to.

Key:
Conditions in all cases: both partners purified
[1] = target: T1, Linear tetra-ubiquitin fused to GST (GST–4×Ub) (UniProt P0CG48 fragment; P0CG48 fragment; P0CG48 fragment; P0CG48 fragment); assay: microscopy-based bead assay; Figs. 5b, 7d, 7f, Extended Data Fig. 9b: GST–4×Ub on glutathione beads; OPTN (mCherry-tagged or unlabeled) and GFP–TBK1 250 nM; NAP1, MBP–NAP1 or SINTBAD–mCherry 100 nM to 10 µM; unlabeled NDP52 250 nM where indicated; 25 mM Tris-HCl pH 7.4, 150 mM NaCl, 1 mM DTT; Fig. 5b without ATP, Fig. 7f with or without ATP/MgCl2; 30 min; confocal imaging
T1 construct: ubiquitin, unit 1 of 4 of linear tetra-ubiquitin, units joined head to tail; ubiquitin, unit 2 of 4 of linear tetra-ubiquitin; ubiquitin, unit 3 of 4 of linear tetra-ubiquitin; ubiquitin, unit 4 of 4 of linear tetra-ubiquitin; Cloned into pGEX-4T1; held on glutathione beads by its GST; also called GST-tagged linear ubiquitin chains; linear 4× ubiquitin; source: E. coli Rosetta pLysS, purified …
T1 sequence (P0CG48 1-304): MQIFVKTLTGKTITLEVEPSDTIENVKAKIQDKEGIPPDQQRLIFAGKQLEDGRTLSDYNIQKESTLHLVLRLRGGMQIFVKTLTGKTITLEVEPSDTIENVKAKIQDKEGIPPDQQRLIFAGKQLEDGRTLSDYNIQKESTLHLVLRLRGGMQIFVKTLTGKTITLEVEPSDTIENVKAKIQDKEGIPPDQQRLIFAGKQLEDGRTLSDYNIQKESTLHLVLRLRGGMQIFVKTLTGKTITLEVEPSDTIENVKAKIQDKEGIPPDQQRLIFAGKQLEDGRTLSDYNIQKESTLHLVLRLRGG

GFP–TBK1 (wild type) [2] = target: T2, GFP–TBK1 (wild type) (UniProt Q9UHD2 1-729); assay: as above
T2 construct: TBK1, gene-synthesized codon-optimized GST–TEV–EGFP–TBK1 in pFastBac-Dual; also called EGFP–TBK1 WT; EGFP-tagged TBK1; source: Sf9 insect cells, purified (GST-batch protocol); not shown: EGFP, N-terminal, kept
T2 sequence (looked up): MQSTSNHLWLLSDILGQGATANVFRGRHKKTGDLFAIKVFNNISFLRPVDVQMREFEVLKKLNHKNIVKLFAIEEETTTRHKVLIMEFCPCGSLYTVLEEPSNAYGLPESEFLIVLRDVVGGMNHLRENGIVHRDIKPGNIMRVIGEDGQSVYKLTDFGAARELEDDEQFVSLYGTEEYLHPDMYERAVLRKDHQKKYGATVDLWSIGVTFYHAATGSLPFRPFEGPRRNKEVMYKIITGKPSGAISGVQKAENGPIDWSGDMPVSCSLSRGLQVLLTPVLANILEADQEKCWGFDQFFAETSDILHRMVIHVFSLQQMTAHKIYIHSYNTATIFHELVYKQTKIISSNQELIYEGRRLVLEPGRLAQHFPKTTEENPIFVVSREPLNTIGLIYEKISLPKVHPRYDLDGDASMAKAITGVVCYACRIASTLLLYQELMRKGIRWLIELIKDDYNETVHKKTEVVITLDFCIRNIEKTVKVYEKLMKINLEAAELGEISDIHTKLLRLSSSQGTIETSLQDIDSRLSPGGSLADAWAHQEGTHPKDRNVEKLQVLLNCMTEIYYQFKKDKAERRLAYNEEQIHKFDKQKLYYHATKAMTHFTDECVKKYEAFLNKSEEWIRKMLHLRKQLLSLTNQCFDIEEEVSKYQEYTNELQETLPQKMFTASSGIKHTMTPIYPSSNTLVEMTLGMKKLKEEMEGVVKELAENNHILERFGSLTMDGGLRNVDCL

GFP–TBK1 (wild type) [3] = target: T2, GFP–TBK1 (wild type); assay: microscopy-based bead assay; Fig. 6e, Extended Data Fig. 10: GST, OPTN-GST or GST–NAP1 on glutathione beads; EGFP–TBK1 WT, KD or E696K 250 nM; 25 mM Tris-HCl pH 7.4, 150 mM NaCl, 1 mM DTT; 30 min; Extended Data Fig. 10 with and without ATP/MgCl2 (interaction weakened with ATP/MgCl2); confocal imaging
GFP–TBK1 (wild type) [4] = target: T2, GFP–TBK1 (wild type); assay: pull-down; Extended Data Fig. 5, Fig. 7e: GFP–TBK1 pre-loaded on GFP-Trap agarose beads; mCherry–OPTN 1 µM, mCherry–NDP52 1 µM, NAP1 1–10 µM; 25 mM Tris-HCl pH 7.4, 150 mM NaCl, 1 mM DTT; 1 h at 4 °C; SDS–PAGE and Coomassie staining

B2: MBP–NAP1 delta-NDP52 (S37K/A44E) (natural protein)
chain: not shown
notes: NAP1 (AZI2), human cDNA, gene-synthesized, with an N-terminal MBP-tag followed by a TEV cleavage site; S37K and A44E; source: E. coli Rosetta pLysS, purified (amylose beads, SEC); not shown: MBP, N-terminal, kept
- binding result (GFP–TBK1 (wild type) [2]): binds

B4: mCherry–OPTN (natural protein)
chain: not shown
notes: OPTN (optineurin), human cDNA in pETDuet-1 as 6×His-TEV–mCherry–OPTN; also called mCherry-tagged OPTN; optineurin; source: E. coli Rosetta pLysS, purified (His-Trap, TEV, SEC); not shown: His6, N-terminal, cleaved; mCherry, N-terminal, kept
- binding result (GFP–TBK1 (wild type) [4]): binds
- binding result [1]: binds

Next, values leading:

- binding result [1]: binds
- binding result (GFP–TBK1 (wild type) [2]): binds
B1: OPTN (unlabeled) (natural protein)
chain: not shown
notes: OPTN (optineurin); also called unlabeled OPTN

- binding result (GFP–TBK1 (wild type) [3]): binds
B3: OPTN-GST (natural protein)
chain: not shown
notes: OPTN (optineurin), human cDNA in pETDuet-1 with a carboxy-terminal GST-tag; the only GST-tagged OPTN of the methods is OPTN-GST; also called GST–OPTN; source: E. coli Rosetta pLysS, purified (GST-batch protocol); not shown: GST, C-terminal, kept
